According to the supplement of paper PMC7125110:
± gives the standard error. Variants at the floor of the assay are shown more often than the library holds them.

B1: glmS ribozyme (parent)
chain: AUAAAAGCGCCAGAACUACAGAAAUGUAGUUGACGAGGAGGAGGUUUAUCGAAUUUUCGGCGGAUGCCUCCAAA

Columns and labels:
Conditions in all cases: with glucosamine-6-phosphate
glucosamine-6-phosphate [1] = variants of: B1; assay: self-cleavage kobs at 40 uM GlcN6P; higher = faster cleavage; RNA array
Outline: (§1)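 Using a hybridised Cy3 probe at 37 °C, barcoded ribozyme variants transcribed in situ by E. coli RNA polymerase on sequenced MiSeq chips were monitored across tiles imaged over ~14 h. The flow contained glucosamine-6-phosphate from 40 μM to 10 mM in HEPES/KCl/Mg(OAc)2 buffer. Signals were normalised to baseline and to non-cleaving reference variants before per-tile medians were fit to one- or two-exponential decays to yield kobs. Weighted Michaelis–Menten fits across concentrations gave kcat and KM.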

glucosamine-6-phosphate [2] = variants of: B1; assay: self-cleavage kobs at 640 uM GlcN6P; higher = faster cleavage; RNA array
Outline: as §1

glucosamine-6-phosphate [3] = variants of: B1; assay: self-cleavage kobs at 160 uM GlcN6P; higher = faster cleavage; RNA array
Outline: as §1

glucosamine-6-phosphate [4] = variants of: B1; assay: self-cleavage kobs at 2500 uM GlcN6P; higher = faster cleavage; RNA array
Outline: as §1

glucosamine-6-phosphate [5] = variants of: B1; assay: self-cleavage kobs at 10000 uM GlcN6P; higher = faster cleavage; RNA array
Outline: as §1

| Variant | self-cleavage kobs at 40 uM GlcN6P (glucosamine-6-phosphate [1]) [s⁻¹] | self-cleavage kobs at 640 uM GlcN6P (glucosamine-6-phosphate [2]) [s⁻¹] | self-cleavage kobs at 160 uM GlcN6P (glucosamine-6-phosphate [3]) [s⁻¹] | self-cleavage kobs at 2500 uM GlcN6P (glucosamine-6-phosphate [4]) [s⁻¹] | self-cleavage kobs at 10000 uM GlcN6P (glucosamine-6-phosphate [5]) [s⁻¹] |
| --- | --- | --- | --- | --- | --- |
| A15U G35A C61A | < 1e-05 | < 1e-05 | – | – | – |
| A15G C34A U54A C71U | < 1e-05 | < 1e-05 | – | – | – |
| U30G G35A A64U | < 1e-05 | – | – | – | – |
| U31G G60U | < 1e-05 | < 1e-05 | < 1e-05 | < 1e-05 | < 1e-05 |
| U31C G35U A53U | < 1e-05 | < 1e-05 | – | < 1e-05 | < 1e-05 |
| G26A A39U G40C | 5.34e-05 ± 1.4e-05 | – | – | – | – |
| A14U C50U | < 1e-05 | – | – | – | – |
| C16U G32U G43U G51U U69G | < 1e-05 | – | – | – | < 1e-05 |
| U30A A64G | 0.000149 ± 2.6e-05 | 0.00193 ± 0.00045 | 0.000656 ± 0.00022 | 0.0035 ± 0.0008 | 0.00607 ± 0.0014 |
| C16U U31G G51A | < 1e-05 | – | – | – | – |
| G29C G62U | < 1e-05 | – | < 1e-05 | – | – |
| A14C U55A U56G | 0.002 ± 0.00048 | 0.0195 ± 0.0041 | – | 0.0295 ± 0.013 | – |
| C16A A64U | < 1e-05 | – | < 1e-05 | – | – |
| A15C G35U C50U | < 1e-05 | – | – | < 1e-05 | < 1e-05 |
| U30C G40A G44U | < 1e-05 | – | – | – | < 1e-05 |
| C16G U55G | 0.000147 ± 2.3e-05 | – | – | – | – |
| C16G C34G G60U C61G U65A C67G | 8.29e-05 ± 1.8e-05 | – | – | 0.000198 ± 6.9e-05 | – |
| A15U A36C U46G | < 1e-05 | – | – | – | < 1e-05 |
| A14C C70U | 0.000159 ± 1.4e-05 | 0.000897 ± 9.5e-05 | 0.000308 ± 3.9e-05 | 0.00439 ± 0.0007 | 0.00953 ± 0.0013 |
| G29C A52C | < 1e-05 | < 1e-05 | < 1e-05 | < 1e-05 | < 1e-05 |
| A14G G63A | < 1e-05 | – | – | < 1e-05 | – |
| C16G U30A U65G | < 1e-05 | – | – | – | – |
| A15U C68A | < 1e-05 | – | – | – | – |
| G29U U47A G63U C71G | < 1e-05 | – | – | – | – |
| U30G G32A | 5.91e-05 ± 1.1e-05 | – | – | – | – |
| C16G G32A G44C C58U | < 1e-05 | – | – | – | < 1e-05 |
